The structures appear in SMILES notation. In all, about 150,000 compounds went through this assay and about 540 (0.36%) showed an effect of 50% or more. The list shows a part of the results.

Here are results for 23 compounds from ChEMBL document CHEMBL4888484, “Replenishing the malaria drug discovery pipeline: Screening and hit evaluation of the MMV Hit Generation Library 1 (HGL1) against asexual blood stage Plasmodium falciparum ,using a nano luciferase reporter read-out” (2022).

The subject of this assay is Plasmodium falciparum. Briefly: Primary screen in NF54 nanoGlo assay, in single point, at 2uM, 72h; a lower Z score goes with more inhibition. It counts as functional, Erythrocyte. The conditions noted are these: timepoint 72 hour.
As for `COc1ccc(-n2nc(C)nc2-c2cnn(C)c2C)cc1`, the % Inhibition (commonly the relative decrease from the control value, in per cent) is 11% and the Z score is on record as -1.48.

As to `CCOC(=O)N1CCN(C(=O)C2CCC(Cn3cnnn3)CC2)CC1` (stereo unspecified), the “% Inhibition” value is -4% and the Z score is 0.68.

On to `Cc1cncc(C(=O)NC[C@H](Cc2cnn(C)c2)C(N)=O)c1`, for which the “% Inhibition” value is -7% and the Z score came out at 0.68.

Regarding `O=C(Cn1cnnc1)NC(c1ccc(F)cc1F)[C@H]1C[C@@H](O)C1` (stereo partly specified), the “% Inhibition” value was -8% and the Z score stood at 1.34.

On to `CCOC(=O)[C@H]1CCCN(C(=O)c2nn(-c3ccc(C)c(Cl)c3)c(=O)n(CC)c2=O)C1`, for which the “% Inhibition” value is on record as -6% and the Z score is 0.61.

`Cc1ccc(CNC(=O)c2cccc(Oc3cc(-c4cccc(F)c4)ncn3)c2)cc1`: the “% Inhibition” value is -12% and the Z score is recorded as 1.54.

`COc1ccc(-c2cc3n(n2)CCCN(C(=O)c2ccc(F)cc2)C3)cc1OC`: the “% Inhibition” value is listed as -10% and the Z score turned out to be 1.09.

As to `Cc1cn2c(S(=O)(=O)NCc3ccco3)c(C(C)C)nc2s1`, the “% Inhibition” value was determined as 38% and the Z score is given as -4.81.

For the compound `COc1cccc(CN[C@@H](C)c2ccc(N3CCN(C)CC3)cc2)c1`, the “% Inhibition” value is recorded as 11% and the Z score is listed as -1.17.

Turning to `C[C@@H](C(=O)NC1CCCC1)S(=O)(=O)Cc1cccc2ccccc12`, the “% Inhibition” value was -6% and the Z score was 0.75.

With `CCN1CCOCC1C(=O)OC(C)C(=O)NC(N)=O` (stereo unspecified), the “% Inhibition” value is -8% and the Z score worked out at 0.8.

`COc1cc(CNc2nccs2)cc(Br)c1OCc1ccc(F)cc1`: the “% Inhibition” value is -13% and the Z score is 1.77.

In the case of `CN1CN(C(=O)NCc2cnccc2C(C)(C)C)CC1=O`, the “% Inhibition” value came out at 3% and the Z score was -0.35.

For `COc1ccc2c(c1)C(N1CCN(C(=O)NCc3cccc(C)c3)CC1)=Nc1ccccc1O2`, the “% Inhibition” value is reported as -3% and the Z score was determined as 0.47.

As for `CCC(C)(C)CC(=O)N[C@@H](Cc1ccccc1)c1n[nH]c(=O)[nH]1`, the “% Inhibition” value turned out to be 8% and the Z score was -0.92.

For `CN1C(=O)[C@H]2CN(C(=O)c3cccc4cc[nH]c34)C[C@H]2C1=O`, the “% Inhibition” value is -11% and the Z score stood at 1.26.

Regarding `CN(C)C(=O)NCCNC(=O)C(C)(C)c1ccc(Cl)cc1F`, the “% Inhibition” value is -3% and the Z score is 0.26.

`CCN1Cc2nc(OC)c(CN[C@H]3CCCOC3)cc2C1=O`: the “% Inhibition” value is 5% and the Z score is -0.71.

Regarding `Cc1nnc2sc(Nc3ccccc3)nn12`, the “% Inhibition” value was found to be 38% and the Z score is -4.86.

For the compound `COc1c(F)cccc1C(=O)NCC1=CCCCC1`, the “% Inhibition” value is recorded as -4% and the Z score turned out to be 0.51.

`O=C(OCc1ccc(Cl)cc1)c1ccccc1N1C(=O)c2ccccc2C1=O`: the “% Inhibition” value was -2% and the Z score came out at 0.25.

In the case of `CCOc1ccc(-c2ccnc3c(C(=O)NCc4ccc(OC)c(OC)c4)cnn23)cc1`, the “% Inhibition” value came out at 34% and the Z score is listed as -3.9.

With `Cc1nc2ccccc2n1CC1CCN(CC#N)CC1`, the “% Inhibition” value is -2% and the Z score stood at 0.2.
